Results: a compilation of properties of binary mixtures (doi:10.1016/j.molliq.2016.11.074)
Some of these densities may be calculated back from excess volumes.

Assay: xn = mol fraction of the nth substance listed
Settings: 100 kPa

O + CC[n+]1ccn(C)c1.CS(=O)(=O)[O-]
x1 = 1
Settings	mass density [kg/m3]
298.15 K	995.9
303.15 K	994.2
308.15 K	993.2
313.15 K	991.6

CC[n+]1ccn(C)c1.CS(=O)(=O)[O-] + O
mass density [kg/m3]
Settings	293.15 K	298.15 K	303.15 K	308.15 K	313.15 K
x1 = 0.0028	–	1000.6	–	997.2	995.5
x1 = 0.0057	–	1008	1006.5	1004.7	1002.8
x1 = 0.0087	1014.6	1013.2	–	–	–
x1 = 0.0119	1019.6	1018.2	–	1015.1	1013.7
x1 = 0.0188	1032.8	–	1029.3	1027.3	1025.1
x2 = 0	1243.1	1239.6	1236.2	1232.8	1229.4
x2 = 0.191	–	1233.9	1230.5	1227.1	1223.7
x2 = 0.3233	1234.5	1231.1	1227.8	1224.4	1221
x2 = 0.4274	–	1225.8	1222.4	1219.1	1215.7
x2 = 0.5057	1225.1	1221.7	1218.4	1215	–
x2 = 0.619	1214.3	1210.9	1207.6	1204.2	1200.9
x2 = 0.7542	1191.9	1188.6	1185.2	1181.9	1178.5
x2 = 0.902	1124.9	1122	1119.1	1116.1	1113
x2 = 0.9651	–	1054.9	1052.7	1050.8	1049.2
